Consider one protein from patent US20240024490.

The data set deals with BRD4-HA (cytoplasmic version), O60885.

B1: HA-tagged Abl (protein)
chain: MLEICLKLVGCKSKKGLSSSSSCYLEEALQRPVASDFEPQGLSEAARWNSKENLLAGPSE[about 60 residues not given here]LEKHSWYHGPVSRNAAEYLLSSGINGSFLVRESESSPGQRSISLRYEGRVYHYRINTASDGKLYVSSESRFNTLAELVHHHSTVADGLITTLHYPAPKRNKPTVYGVSPNYDKWEMERTDITMKHKLGGGQYGEVYEGVWKKYSLTVAVKTLKEDTMEVEEFLKEAAVMKEIKHPNLVQLLGVCTREPPFYIITEFMTYGNLLDYLRECNRQEVNAVVLLYMATQISSAMEYLEKKNFIHRDLAARNCLVGENHLVKVADFGLSRLMTGDTYTAHAGAKFPIKWTAPESLAYNKFSIKSDVWAFGVLLWEIATYGMSPYPGIDLSQVYELLEKDYRMERPEGCPEKVYELMRACWQWNPSDRPSFAEIHQAFETMFQESSISDEVEKELGKQGVRGAVSTLLQAPELPTKTRTSRRAAEHRDTTDVPEMPHSKGQGESDPLDHEPAVSPLLPRKERGPPEGGLNEDERLLPKDKKTNLFSALIKKKKKTAPTPPKRSSSFREMDGQPERRGAGEEEGRDISNGALAFTPLDTADPAKSPKPSNGAGVPNGALRESGGSGFRSPHLWKKSSTLTSSRLATGEEEGGGSSSKRFLRSCSASCVPHGAKDTEWRSVTLPRDLQSTGRQFDSSTFGGHKSEKPALPRKRAGENRSDQVTRGTVTPPPRLVKKNEEAADEVFKDIMESSPGSSPPNLTPKPLRRQVTVAPASGLPHKEEAGKGSALGTPAAAEPVTPTSKAGSGAPGGTSKGPAEESRVRRHKHSSESPGRDKGKLSRLKPAPPPPPAASAGKAGGKPSQSPSQEAAGEAVLGAKTKATSLVDAVNSDAAKPSQPGEGLKKPVLPATPKPQSAKPSGTPISPAPVPSTLPSASSALAGDQPSSTAFIPLISTRVSLRKTRQPPERIASGAITKGVVLDSTEALCLAISRNSEQMASHSAVLEAGKNLYTFCVSYVDSIQQMRNKFAFREAINKLENNLRELQICPATAGSGPAATQDFSKLLSSVKEISDIVQR
As for B1, the “p-BRD4 (pan pTyr antibody) on BRD4-HA (Cytoplasmic), after IP” value was “p-BRD4 bands in the lanes VS812, AD107 (Meta) and AD100 (Para); weak band with AD95 (Ortho); faint with VS875; none with DMSO; BRD4-HA (after IP), Abl-HA and Actin (before IP) about equal in all six lanes; VS812 is drawn on D00021 as the Abl binder alone, without a BRD4-binding part”.
